In PubChem BioAssay AID445 (National Center for Advancing Translational Sciences (NCATS), 2006):
The whole screen tested about 110,000 compounds, of which about 40 (0.04%) were called active. The inconclusive results got no clear call from the source; some entries with a clear call stand among them for comparison. The call rests on the fitted dose curve; in most records, active means well fitted curve in the direction sought with a large enough effect in the signal ratio (not every such curve was filed as active); inconclusive means small, poorly fitted or top-dose-only effect, or a change in a side signal; inactive means flat fitted curve, though single readings scatter; the % refers to the signal ratio. Potencies beside an inconclusive call are fits to weak or partial responses and may not hold up.

Experiment: IkB Signaling;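 on IkBa stabilization activation: 0% = basal untreated cells and 100% = reference inhibitor full response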
Conditions: ABC-DLBCL IkBa-CBG/CBR dual luciferase ratio (green luciferase fused to IkBa over red control in OCI-Ly3 lymphoma cells), 4 h; IkBa stabilization activation: at 57.1 µM (top of the series), scaled: untreated 0%, proteasome inhibitor 100% unless noted
Procedure, shortened: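 Luminescence ratio of IκBα-fused green versus native red beetle luciferase in OCI-Ly3 cells, 4 h post-doxycycline with compound; red signal alone, scaled from basal (0%) to zero light (-100%), flagged nonspecific or cytotoxic effects.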
Potency means the concentration at half of the fitted maximal effect.

| Structure (SMILES) | IkBa stabilization activation | Potency |
| --- | --- | --- |
| CCOC(=O)c1sc(NC(=O)C2CC2)cc1C | inactive: -2.26% | – |
| Cc1ccc(NC(=O)c2cc(-c3cccs3)nc3ccccc23)c(C)c1 | inconclusive: 4.61% [signal inhibitor] | – |
| O=C(Nc1ccccc1-c1nc2ccccc2s1)c1ccco1 | inactive: -5.84% | – |
| CCCCN1C(=O)/C(=C2\SC(N3CCCCC3)=NC2=O)c2ccccc21 | inconclusive: 6.93% [signal inhibitor] | – |
| Cc1ccc(N2CCN(C(=O)Nc3cn(CC(C)C)c(=O)c4ccccc34)CC2)c(C)c1 | inconclusive: -0.813% [signal inhibitor] | – |
| C=C(C)CSc1nncn1/N=C/c1ccc(OC)cc1 | inactive: -1.73% | – |
| CC(C)C(C(=O)Nc1ccccc1)N1C(=O)c2ccccc2C1=O (stereo not drawn) | – | inconclusive: 3.16 µM [rising, partial curve] |
| Cc1ccc(CNC(=O)c2ccc(CSCc3c(F)cccc3Cl)o2)cc1 | inconclusive: 0.61% [signal inhibitor] | – |
| COc1ccccc1NC(=O)N1CCOc2ccccc21 | inconclusive: 2.51% [signal inhibitor] | – |
| COC(=O)c1cc2oc3ccccc3c2n1CC(=O)Nc1ccc(C)cc1Cl | inconclusive: 12.5% [signal inhibitor] | – |
| CCn1c(C(=O)NCc2ccccc2)cc2sc(Cl)cc21 | inconclusive: 0.256% [signal inhibitor] | – |
| COC(=O)c1c(SC)nc2ccccc2c1OCc1cc(C)ccc1C | inactive: 3.52% | – |
| Cc1ccc(CNC(=O)c2ccc(NC(=O)c3nsc4ccccc34)cc2)cc1 | – | inconclusive: 10 µM [signal inhibitor, partial curve] |
| CCCOc1ccc(CNC(=O)c2cc3oc4ccccc4c3n2C)cc1 | inconclusive: -0.385% [signal inhibitor] | – |
| CCNc1oc(-c2cccc3ccccc23)nc1C#N | inactive: -1.43% | – |
| O=C(CSc1nc(-c2cccs2)cc(C(F)(F)F)n1)Nc1ccccc1Cl | inconclusive: 0.771% [signal inhibitor] | – |
| O=C(Nc1ccc2nc(SCC(=O)N3CCc4ccccc43)sc2c1)c1ccc(Cl)cc1 | inconclusive: -0.505% [signal inhibitor] | – |
| Cc1cccc(C(=O)Nc2sc3c(c2C(=O)Nc2ccccc2)CCC3)c1 | inconclusive: 19.7% [signal inhibitor] | – |
| COc1ccc(OCCn2c(=N)n(CCO)c3ccccc32)cc1 | inactive: 1.68% | – |
| COc1ccc(C)cc1NC(=O)Cc1ccc(NC(=O)N2CCCCc3ccccc32)cc1 | inconclusive: -0.685% [signal inhibitor] | – |
| CCOC(=O)C1=C(CN(C)Cc2ccccc2)NC(=O)NC1c1ccc(OC(C)C)cc1 (stereo not drawn) | inconclusive: 2.27% [signal inhibitor] | – |
| O=C(/C=C/c1ccc(O)c(O)c1)OC1C[C@](O)(C(=O)O)C[C@@H](O)[C@H]1O (stereo partly drawn) | inactive | – |
| O=C(Nc1ccccc1[N+](=O)[O-])c1csnn1 | inactive: -1.15% | – |
| COc1ccc(-c2noc(CSc3nnc(C)n3-c3ccc(C)cc3)n2)cc1 | inconclusive: 1.05% [signal inhibitor] | – |
| C=Cc1ccccn1 | inactive: -0.428% | – |

| Structure (SMILES) | IkBa stabilization activation | Potency |
| --- | --- | --- |
| COc1ccc(N2CC(C(=O)Nc3ccccc3-c3nc(-c4ccc(C)cc4)no3)CC2=O)cc1 (stereo not drawn) | inconclusive: 8.33% [signal inhibitor] | – |
| Cn1c(=O)c2c(nc(NCc3ccccc3)n2Cc2ccc(Cl)c(Cl)c2)n(C)c1=O | inconclusive: 1.45% [signal inhibitor] | – |
| O=c1c(-c2ccccc2)nc2cncnc2n1Cc1ccccc1 | inactive: -0.716% [at 11.4 µM, scaled: untreated 0%, proteasome inhibitor 100%] | – |
| COc1cccc(NC(=O)c2oc3ccc(S(=O)(=O)N4CCC5(CC4)OCCO5)cc3c2C)c1 | inconclusive: 0.734% [signal inhibitor] | – |
| CN(C)c1ccc(CNS(=O)(=O)c2csc(C(N)=O)c2)cc1 | inconclusive: -0.954% [signal inhibitor] | – |
| O=C(NCC(c1ccco1)S(=O)(=O)c1cccs1)c1ccc(C(F)(F)F)cc1 (stereo not drawn) | inconclusive: -1.56% [signal inhibitor] | – |
| CC(=O)OC(/C(O)=C(\C#N)c1nc2ccccc2[nH]1)c1ccccc1 (stereo not drawn) | inconclusive: 1.35% [signal inhibitor] | – |
| COc1cccc(NC(=O)Nc2cc(-c3cn4cccnc4n3)ccc2OC)c1 | inconclusive: 1.24% [signal inhibitor] | – |
| Cc1ccccc1NC(=O)CSc1nc2ccc(NC(=O)c3ccco3)cc2s1 | inconclusive: -0.284% [signal inhibitor] | – |
| COc1ccc(C)cc1NC(=O)c1cc(S(=O)(=O)NCCC2=CCCCC2)ccc1F | inconclusive: 2.9% [signal inhibitor] | – |
| COC(=O)c1cc(COc2ccc3ccc(=O)oc3c2)c(C)o1 | inactive: -3.21% | – |
| O=C(CSCc1ccc(F)cc1)N1CCc2c([nH]c3ccccc23)C1c1ccccc1 (stereo not drawn) | inconclusive: 1.69% [signal inhibitor] | – |
| Cn1cc(Cl)c(C(=O)N(Cc2ccccc2)c2ccccn2)n1 | inactive: 0.000677% | – |
| ICCc1ccccc1 | inactive: 11.5% | – |
| COc1ccc(NC(=O)Nc2ccc(N(C)C)cc2)cc1 | inactive: -1.15% | – |
| CCCOc1ccc(Cn2c(=O)sc3ccccc32)cc1 | inconclusive: 0.754% [signal inhibitor] | – |
| Cc1ccc(C)c2[nH]c(=O)c(CN(CC3CCCO3)C(=O)NC3CCCCC3)cc12 (stereo not drawn) | inactive: -0.399% | – |
| Cc1ccc(-c2nc(SCC(=O)Nc3cc(C)on3)c3c(=O)n(C)c(=O)n(C)c3n2)cc1 | inactive: -1.29% | – |
| COc1ccccc1NC(=O)c1c(NC(=O)c2cccs2)sc2c1CCC(C(C)(C)C)C2 (stereo not drawn) | inconclusive: 12.3% [signal inhibitor] | – |
| CC1Cc2ccccc2N1Cc1nc2scc(-c3cccs3)c2c(=O)[nH]1 (stereo not drawn) | inactive: 2.1% | – |
| CC(C)CN1CCCC2(CCN(C(=O)c3cccn3C)CC2)C1 | inactive: 0.653% [at 11.4 µM, scaled: untreated 0%, proteasome inhibitor 100%] | – |
| CCC(=O)N(c1ccc(F)cc1)C1C=CS(=O)(=O)C1 (stereo not drawn) | inactive: -1.6% | – |
| CCn1c(SCC(=O)OC)nc2sc3c(c2c1=O)CCC3 | inactive: -3.81% | – |
| O=C(Nc1ccccc1)Nc1ccc(S(=O)(=O)N2CCCCC2)cc1 | inconclusive: 0.333% [signal inhibitor] | – |
| Cc1ccc(CCNC(=O)C2CCCN(S(=O)(=O)c3ccc4c(c3)oc(=O)n4C)C2)cc1 (stereo not drawn) | inconclusive: 5.3% [signal inhibitor] | – |

| Structure (SMILES) | IkBa stabilization activation | Potency |
| --- | --- | --- |
| CCc1ccc(C(=O)c2cn(Cc3ccccc3)c3cc(OC)c(OC)cc3c2=O)cc1 | inconclusive: 3.35% [signal inhibitor] | – |
| CCCCOC(=O)c1ccc(Nc2nc3ccc(C)cc3n3cnnc23)cc1 | – | inconclusive: 15.8 µM [signal inhibitor, partial curve] |
| Cc1ccc(CSCCC(=O)N2CCN(c3cc(C)ccc3C)CC2)cc1 | inconclusive: -2.51% [signal inhibitor] | – |
| CCCN(CCC)C(=O)C1CCCN(c2ncnc3onc(-c4ccc(F)cc4)c23)C1 (stereo not drawn) | inconclusive: 0.764% [signal inhibitor] | – |
| COc1ccc(-c2noc(CN(C(=O)Cc3ccc(C)cc3)C(C)C)n2)cc1 | inconclusive: 2.33% [signal inhibitor] | – |
| COCCCNC(=O)c1sc2nc(C)c(C(=O)Nc3ccc(C)cc3C)c(-c3ccc(Br)cc3)c2c1N | inconclusive: 5.79% [signal inhibitor] | – |
| CCC(C)NC(=O)CSc1nnc(-c2ccc(C)cc2)c(-c2ccc(C)cc2)n1 (stereo not drawn) | inconclusive: 2.02% [signal inhibitor] | – |
| COc1cccc(Cn2c(=O)c(C)nc3cnc(Oc4cccc(Cl)c4)nc32)c1 | inactive: 6.12% [at 11.4 µM, scaled: untreated 0%, proteasome inhibitor 100%] | – |
| O=C(NCCCO)C(=O)Nc1c2c(nn1-c1ccccc1)CSC2 | inactive: -1.36% | – |
| COc1cc(-c2nnc(-c3cccs3)o2)cc(OC)c1OC | inactive: -0.11% | – |
| Cc1ccc(-c2nc3cc(N)ccc3o2)c(C)c1 | inactive: 1.1% | – |
| Cc1cn2c(=O)cc(COC(=O)c3ccccc3F)nc2s1 | – | inconclusive: 3.98 µM [signal inhibitor, full curve] |
| COc1cc(C)ccc1OCCSc1nc2ccc(NC(=O)c3cccs3)cc2s1 | inconclusive: 0.722% [signal inhibitor] | – |
| Cc1ccc(CNC(=O)CN2C(=O)CSc3ccc(S(=O)(=O)N4CCCC4)cc32)cc1 | inconclusive: -0.926% [signal inhibitor] | – |
| CCc1ccc(C(=O)CSc2nc(-c3ccccc3)nc3c2CCCC3)cc1 | inconclusive: 3.66% [signal inhibitor] | – |
| O=C(Nc1ccc2oc(-c3ccccc3)nc2c1)c1ccc2c(c1)OCCO2 | inconclusive: 6.3% [signal inhibitor] | – |
| CN(C)c1ccc(CNC(=O)CN2C(=O)CCn3nc(-c4cn(C)c5ccccc45)cc32)cc1 | inconclusive: 1.67% [signal inhibitor] | – |
| Cc1c(NC(=O)Nc2ccc(Cl)c(C(F)(F)F)c2)c(=O)n(-c2ccccc2)n1C | inconclusive: 0.984% [signal inhibitor] | – |
| Fc1ccccc1N1CCN(c2ncnc3onc(-c4cccc(Cl)c4)c23)CC1 | inconclusive: 5.29% [signal inhibitor] | – |
| CCOC(=O)CSc1nnc(-c2cccc(Br)c2)o1 | inconclusive: 6.96% [signal inhibitor] | – |
| CC(=O)Nc1ccc(NC(=O)c2nc(SCc3ccccc3C)ncc2Cl)cc1 | inconclusive: 0.354% [signal inhibitor] | – |
| COc1ccc(Cn2c(C)nc3c(c2=O)c2nc4ccccc4nc2n3Cc2ccco2)cc1 | inactive: 11.1% | – |
| Cc1cccn2c(=O)cc(COc3ccc(NC(=O)C(C)Oc4ccccc4)cc3)nc12 (stereo not drawn) | inconclusive: 0.917% [signal inhibitor] | – |
